Several values for one entry are separate records, joined by “and”; a condition that tells them apart may be missing. Equal entries are not always repeated. Hit rate of the full screen: of about 420,000 compounds, about 50,000 (12%) were called active. The inconclusive results got no clear call from the source; some entries with a clear call stand among them for comparison. Calls follow the shape of the dose curve; as a rule, active = well fitted inhibition curve with a large enough effect; inconclusive = small, poorly fitted or top-dose-only effect; inactive = flat fitted curve, though single readings scatter. Potencies of inconclusive entries are left out as doubtful fits. The source holds several records for some structures; these can differ, active in one and inactive in another.
Experiment: qHTS for Inhibitors of human tyrosyl-DNA phosphodiesterase 1 (TDP1): qHTS in cells in presence of CPT; also: nearly all actives have a fitted effect of over 55% in size
Details: chicken DT40 Tdp1-/-;hTDP1 cells + 20 nM CPT, ATP luminescence, 48 h; activity change, negative = growth inhibition: at 46.2 µM (top of the series) unless noted
Method in brief: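 Cell growth measured by CellTiter-Glo luminescence after a minimum 48 h, 37 C compound exposure with 20 nM CPT in Tdp1-knockout DT40 cells stably expressing hTDP1, seeded 400/well; qHTS titration format.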
With O=S(=O)(c1ccc(-c2n[nH]c(=S)o2)cc1)N1CCCCC1 the “activity change, negative = growth inhibition” value was inactive: -6.14%.
In the case of CC(C)CCOc1ccc(C(=O)Nc2cc(S(=O)(=O)N3CCOCC3)ccc2N2CCOCC2)cc1, the Potency is reported as active: 9.2 µM.
With Cc1cc(-c2nc3ncccc3o2)ccc1NC(=S)NC(=O)C(C)C the “activity change, negative = growth inhibition” value was inactive: 2.48%.
In the case of COc1ccccc1C(=O)Nc1nnc(CCc2ccccc2)s1, the Potency is reported as inconclusive [inhibitor, single point].
For CCOC(=O)[C@]12CCC=C1N(Cc1ccco1)C(=O)[C@H](CC(=O)NCc1ccccc1)C2, the “activity change, negative = growth inhibition” value was inactive: -5.08%.
For CC(=O)Oc1ccccc1Cn1c(C)c(C(=O)NCc2ccc(Cl)c(Cl)c2)sc1=O, the Potency was inconclusive [inhibitor, single point].
With Cc1ccc(CNC(=O)C2CCC(=O)N(CCc3ccc(Cl)cc3)C2)cc1 (stereo unspecified) the Potency was inconclusive [inhibitor, single point].
With O=C1C2C3C=CC(C2C(=O)N1C1CCCCC1)C1C2C(=O)N(C4CCCCC4)C(=O)C2C31 (stereo unspecified) the Potency was inconclusive [inhibitor, full curve].
For COc1ccc(S(=O)(=O)NCC(c2cccnc2)N2CCN(c3ccccc3OC)CC2)cc1C (stereo unspecified), the Potency was inconclusive [inhibitor, single point].
In the case of O=[N+]([O-])c1cccc(Cl)c1N1CCOCC1, the Potency is reported as inconclusive [inhibitor, partial curve].
With O=C(Nc1ccc2c(c1)OCCO2)c1cc(-c2ccccc2)nc2ccccc12 the Potency was inconclusive [inhibitor, single point].
With N#Cc1c(Nc2ccccc2Cl)s[nH]c1=O the Potency was active: 14.6 µM.
With Cc1ccc2c(c1)N(C(=O)CCC(=O)Nc1ccc(F)cc1F)CC(C)O2 (stereo unspecified) the Potency was active: 5.17 µM.
With O=C(NCc1ccc(F)cc1)C1CCC(CNS(=O)(=O)c2ccccc2)CC1 (stereo unspecified) the Potency was inconclusive [inhibitor, partial curve].
With Cc1c(C(=O)Nc2cccc(C(F)(F)F)c2)oc2ccc(S(=O)(=O)N3CCC4(CC3)OCCO4)cc12 the Potency was active: 14.6 µM.
In the case of CCCCn1c(=O)c(CCC(=O)OC(C)C(=O)Nc2cccc(Cl)c2Cl)nc2ccccc21 (stereo unspecified), the Potency is reported as inconclusive [inhibitor, single point].
For COc1ccc(NC(=O)/C(=C/c2cccs2)NC(=O)c2ccco2)cc1, the “activity change, negative = growth inhibition” value was inactive: 2.67%.
With Cc1cccc(N2CC(O)(c3cccs3)[N+]3=C2CCCC3)c1C (stereo unspecified) the activity change, negative = growth inhibition was inconclusive: -32.7% [inhibitor].
For N#C/C(=C/c1ccc(-c2ccccc2)o1)c1nc(-c2cccs2)cs1, the “activity change, negative = growth inhibition” value was inactive: -29.3%.
For Nc1ncnc2nc(SCCc3ccccc3)[nH]c12, the Potency was inconclusive [inhibitor, full curve, poor fit].
In the case of CCc1noc(C)c1C(=O)Nc1nc(-c2ccc(OC)c(OC)c2)cs1, the Potency is reported as inconclusive [inhibitor, single point].
For CCC(C)NS(=O)(=O)c1ccc(NC(=O)C2CCN(C(=O)c3ccco3)CC2)cc1 (stereo unspecified), the Potency was inconclusive [inhibitor, single point].
With CC(C)(C)c1ccc(C(=O)N2CCC(c3noc(-c4ccc(S(=O)(=O)N5CCCC5)cc4)n3)CC2)cc1 the Potency was active: 20.6 µM.
For Cc1ccccc1CNC(=O)CCc1cn(Cc2ccccc2C)c2ccccc12, the Potency was inconclusive [inhibitor, single point].
In the case of CCN(CC)S(=O)(=O)c1ccc(NC(=O)c2ccc3c(=O)n4c(nc3c2)CCCCC4)cc1, the Potency is reported as active: 23.1 µM.
For CCOC(=O)N1CCN(S(=O)(=O)c2ccc(C(=O)NNc3nc4c(C)cccc4s3)cc2)CC1, the Potency was active: 16.4 µM.
In the case of COc1cccc(CC(=O)Nc2nc3ccccc3[nH]2)c1, the “activity change, negative = growth inhibition” value is reported as inactive: 14.9%.
For O=C(CSC1=Nc2ccccc2C2=NC(Cc3c[nH]c4ccccc34)C(=O)N12)NC1CCCCC1 (stereo unspecified), the “activity change, negative = growth inhibition” value was inactive: -18.2%.
With O=C(CN(Cc1cccs1)S(=O)(=O)c1ccc(S(=O)(=O)NC2CCCCC2)cc1)Nc1ccccc1 the Potency was active: 20.6 µM.
For CC(OC(=O)CCOc1ccccc1)C(=O)NC1CC1 (stereo unspecified), the Potency was inconclusive [inhibitor, full curve, poor fit].
With COc1cc(C(=O)c2cocc2C(=O)c2ccc3c(c2)OCO3)cc(OC)c1OC the Potency was active: 0.731 µM.
With Nc1nnc(CCOc2ccccc2Cl)s1 the “activity change, negative = growth inhibition” value was inactive: 3.99%.
For CCCC(=O)NC(c1ccco1)c1cc([N+](=O)[O-])c2cccnc2c1O (stereo unspecified), the “activity change, negative = growth inhibition” value was inactive: -7%.
In the case of CCOc1ccccc1N(C)C(=O)c1cc(S(=O)(=O)NCCc2ccc(Cl)cc2)ccc1F, the Potency is reported as inconclusive [inhibitor, single point].
With CCCCSc1nc(C)cc(C)c1S(=O)(=O)c1ccccc1C the Potency was active: 18.4 µM.
For Cc1ccc(OCc2nnn(CC(=O)NS(=O)(=O)c3c(C)noc3C)c2-c2ccccc2)cc1, the Potency was inconclusive [inhibitor, full curve, poor fit].
With COc1ccc(NS(=O)(=O)c2cc(NC(=O)c3nn(C)c(=O)c4ccccc34)ccc2OC)cc1 the Potency was inconclusive [inhibitor, single point].
In the case of CCOc1ccccc1C(=O)Nc1cc(OC)ccc1OC, the “activity change, negative = growth inhibition” value is reported as inactive: -20.9%.
For Cc1ccc(S(=O)(=O)N2CCOC23CCN(C(=O)c2ccc(Cl)cc2Cl)CC3)cc1, the Potency was inconclusive [inhibitor, single point].
For CCCNC(=O)C1(C)CCCN(C(=O)c2c(F)ccc(C)c2F)C1 (stereo unspecified), the “activity change, negative = growth inhibition” value was inactive: -0.437%.
With COc1ccc(C=CC(=O)c2c(OC)cc(OC)c(OC)c2O)cc1 the Potency was inconclusive [inhibitor, single point].
For O=C(/C=C/c1ccco1)OCC(=O)c1ccc(OC(F)F)cc1, the “activity change, negative = growth inhibition” value was inactive: -5.13%.
For Nc1ccc(SCc2nc3cccc4c3n2CCC4)cc1, the “activity change, negative = growth inhibition” value was inactive: -4.77%.
For Cc1ccc(C)c2[nH]c(=O)c(CN(Cc3ccco3)C(=O)Nc3ccccc3)cc12, the Potency was inconclusive [inhibitor, single point].
With O=C(CSc1nc2ccccc2c(=O)n1CCCN1CCOCC1)Nc1ccc(F)c(Cl)c1 the Potency was inconclusive [inhibitor, single point].
For C[C@H]1CN([C@@H](C)CO)C(=O)Cc2cc(NC(=O)CCC(F)(F)F)ccc2O[C@H]1CN(C)Cc1ccc(C(F)(F)F)cc1, the Potency was inconclusive [inhibitor, single point].
In the case of OC(CSc1c(Cl)cccc1Cl)CN1CCN(c2ccc(F)cc2)CC1 (stereo unspecified), the Potency is reported as inconclusive [inhibitor, single point].
For COCCN(Cc1cc2cccc(C)c2n2nnnc12)C(=O)C(F)(F)F, the Potency was inconclusive [inhibitor, full curve, poor fit].
In the case of CCOc1cnc(-c2c(-c3ccccc3Cl)noc2C)o1, the “activity change, negative = growth inhibition” value is reported as inactive: 8.07%.
For CCCn1c(N)c(C(=O)CSc2n[nH]c(-c3ccccc3F)n2)c(=O)n(C)c1=O, the Potency was active: 20.6 µM.
In the case of Cc1[nH]c(=O)[nH]c(=O)c1NC(=O)c1ccccc1[N+](=O)[O-], the “activity change, negative = growth inhibition” value is reported as inactive: 5.94%.
With CCc1ccccc1NC(=O)CSc1nc(C)c(C(=O)Nc2ccccc2)c(-c2ccc(Cl)cc2)c1C#N the Potency was inconclusive [inhibitor, partial curve].
In the case of CCC(=O)c1ccc2c(c1)OCCO2, the “activity change, negative = growth inhibition” value is reported as inactive: -20.6%.
For C[C@@H]1CN([C@@H](C)CO)C(=O)CCCn2nncc2CO[C@H]1CN(C)S(=O)(=O)c1ccc(-c2ccccc2)cc1, the Potency was inconclusive [inhibitor, single point].
For CCN(CC(=O)Nc1ccccc1C(F)(F)F)C(=O)c1ccccc1Cc1ccccc1, the Potency was inconclusive [inhibitor, single point].
For c1ccc(SC23CCCCN(CCC2)[C@]32CO2)cc1 (stereo partly specified), the “activity change, negative = growth inhibition” value was inactive: -19.4%.
For O=C(Nc1ccc(-c2nc3ccccc3s2)c(O)c1)c1ccc(Br)cc1, the “activity change, negative = growth inhibition” value was inactive: -14.7%.
For C=CCn1c(CCNC(=O)c2cccs2)nnc1SCC(=O)c1ccc(Br)cc1, the Potency was inconclusive [inhibitor, single point].
With COc1ccc(OC)c(S(=O)(=O)N2CCC(C(=O)NCC3CCCO3)CC2)c1 (stereo unspecified) the “activity change, negative = growth inhibition” value was inactive: -13.8%.
With CCOc1ccc(C(=O)Nc2cccc(NC(=O)c3cccs3)c2)cc1[N+](=O)[O-] the Potency was inconclusive [inhibitor, single point].
In the case of Cc1[nH]c2ccccc2c1/C=C/C(=O)c1ccncc1, the “activity change, negative = growth inhibition” value is reported as inactive: -9.25%.
For CCN(CC)S(=O)(=O)c1ccc(NCCCn2ccnc2)c([N+](=O)[O-])c1, the Potency was inconclusive [inhibitor, partial curve].
In the case of CCOC(=O)C1=C(CS(=O)(=O)c2ccc(C(C)(C)C)cc2)NC(=O)NC1c1cccc(OC)c1 (stereo unspecified), the Potency is reported as active: 16.4 µM.
For Cc1cc(C)c(S(=O)(=O)Nc2ccc(O)cc2)cc1C, the Potency was inconclusive [inhibitor, single point].
In the case of O=C(c1ccccc1)N1CCN(c2ccc([N+](=O)[O-])c(N3CCOCC3)c2)CC1, the Potency is reported as inconclusive [inhibitor, single point].
With Cc1cc(=O)c2c(O)c3c(O)cc(=O)c4c3c3c(cc(O)c1c23)C(C)(C)C=4O the Potency was “inactive and active: 1.03 µM”.
With COc1ccc(S(=O)(=O)N(Cc2ccccc2)Cc2nc(-c3ccccc3)no2)cc1 the Potency was active: 14.6 µM.
With CCNC(=S)N/N=C/c1ccc(OCCOc2ccccc2C)cc1 the Potency was inconclusive [inhibitor, partial curve, poor fit].
For Cc1c(C)c2ccc(OCC(=O)NC3CCN(Cc4ccccc4)CC3)cc2oc1=O, the “activity change, negative = growth inhibition” value was inactive: -6.67%.
In the case of CC(=O)Nc1ccc(Nc2ncnc3c2cnn3-c2ccc(C)cc2C)cc1, the Potency is reported as inconclusive [inhibitor, single point].
For O=C(O)c1ccc(C(=O)c2cc([N+](=O)[O-])cc([N+](=O)[O-])c2)cc1, the “activity change, negative = growth inhibition” value was inactive: -23%.

— PubChem BioAssay AID686979 (National Center for Advancing Translational Sciences (NCATS), 2013)
% is scaled to controls: 0 for no effect and ±100 for the full control effect; potency is read from the fitted curve at half-maximal effect; tags tell the direction and shape of the fitted curve.
